Reference: PubChem BioAssay AID1645887 (National Center for Advancing Translational Sciences (NCATS), 2021)
Several values for one entry are separate records, joined by “and”; a condition that tells them apart may be missing. Identical values can stand only once. The whole screen tested about 16,000 compounds, of which about 40 (0.2%) were called active. Not shown: some 1% with an inconclusive outcome. Calls follow the shape of the dose curve; as a rule, active = well fitted activation curve with a large enough effect; inconclusive = small, poorly fitted or top-dose-only effect, or another doubt; inactive = no such curve, though single readings can be large or run the other way. The list shows a part of the results. Non-standard residues stand in square brackets, D forms with d. Residues, ends and D or L forms follow the SMILES beside them.

Biological target: Rap guanine nucleotide exchange factor 4 (Homo sapiens) (UniProt Q8WZA2)
Assay: Validation qHTS for agonist of cAMP-regulated guanine nucleotide exchange factor 4 (EPAC2);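 also: exchange makes BODIPY-GDP fluorescence drop when released from Rap1B; series mostly up to about 150 µM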
Conditions: EPAC2 Rap1B BODIPY-GDP exchange, fluorescence; activation: active compounds read high
In short: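 Fluorescent exchange assay: 100 nM EPAC2 with 250 nM RAP1B-BODIPY-GDP and 50 uM GDP; compound added, 5 min at room temperature, then read (ex 480/em 540 nm) every 5 min for 30 min. Normalized to 6.5 mM cAMP agonist control.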
% is scaled to controls: 0 for no effect and ±100 for the full control effect.

UniProt Q8WZA2, sequence (Q8WZA2 whole entry, looked up): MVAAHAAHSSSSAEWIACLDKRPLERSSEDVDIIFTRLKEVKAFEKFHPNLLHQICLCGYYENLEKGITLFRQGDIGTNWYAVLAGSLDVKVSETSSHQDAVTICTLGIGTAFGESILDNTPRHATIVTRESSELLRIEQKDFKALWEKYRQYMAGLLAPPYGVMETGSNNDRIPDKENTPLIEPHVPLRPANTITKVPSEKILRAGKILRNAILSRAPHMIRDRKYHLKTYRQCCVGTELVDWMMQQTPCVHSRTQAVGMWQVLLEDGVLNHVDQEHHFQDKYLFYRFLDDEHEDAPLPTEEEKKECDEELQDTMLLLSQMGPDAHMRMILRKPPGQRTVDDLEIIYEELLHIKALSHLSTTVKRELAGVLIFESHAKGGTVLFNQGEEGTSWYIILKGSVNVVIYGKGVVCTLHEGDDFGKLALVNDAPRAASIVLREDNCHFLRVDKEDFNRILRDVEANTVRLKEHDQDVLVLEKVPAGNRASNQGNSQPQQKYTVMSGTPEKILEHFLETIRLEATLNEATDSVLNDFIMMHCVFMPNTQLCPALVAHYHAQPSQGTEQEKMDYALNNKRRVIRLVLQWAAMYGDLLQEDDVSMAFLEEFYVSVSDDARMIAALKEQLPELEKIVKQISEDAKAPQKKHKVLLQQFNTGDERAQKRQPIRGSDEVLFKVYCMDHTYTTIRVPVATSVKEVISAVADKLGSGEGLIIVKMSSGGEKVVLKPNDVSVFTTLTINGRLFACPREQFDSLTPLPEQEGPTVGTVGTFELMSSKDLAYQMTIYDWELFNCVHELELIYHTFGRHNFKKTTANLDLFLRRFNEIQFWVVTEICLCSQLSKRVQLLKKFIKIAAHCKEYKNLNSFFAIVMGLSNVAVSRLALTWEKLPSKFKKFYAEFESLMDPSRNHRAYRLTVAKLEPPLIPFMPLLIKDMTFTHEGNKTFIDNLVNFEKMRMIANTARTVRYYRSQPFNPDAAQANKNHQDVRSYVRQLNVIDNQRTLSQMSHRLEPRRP

activation, inactive:
O=C(NCC1Cc2cccc(-c3cncnc3)c2O1)C1CC1 (stereo not given) -13.5%
CN1CCN(c2ncnc3ccc(-c4ccccc4C(F)(F)F)cc23)CC1 -1.99%
C[C@@H]1CCC(=O)N(CC[C@H](Sc2ccccc2)c2ccccc2)CC1 -27.3%
CCN1CCCC1CNCc1cc2ccc(SC)cc2nc1-c1cc(OC)ccc1OC (stereo not given) 0.33%
COc1cc(=O)n2c(c1C(=O)N(C)Cc1cscn1)CCN(C(=O)c1cccc(C)c1C)CC2 -11.8%
COc1ccccc1CNc1ccnc(-c2cccc(NS(C)(=O)=O)c2)n1 -2.38%
O=c1cc(-c2ccccc2O)oc2cc(O)ccc12 -16.1%
CC1OC(n2cc(F)c(=O)[nH]c2=O)C(O)C1O (stereo not given) -5.86%
CCCCCN(CCCCC)C(=O)C(CCC(=O)O)NC(=O)c1ccc(Cl)c(Cl)c1 (stereo not given) -21.5% and -23%
N#CCCn1c(=O)c(-c2ccccc2)nc2cnc(Nc3ccccc3)nc21 10.7%
O=C(C[n+]1cccc(Br)c1)c1ccc(-c2ccccc2)cc1 -9.15%
COc1ccc(C(=O)c2ccccc2)c(O)c1 -26.9% and -24.2%
NCCCCCCNS(=O)(=O)c1cccc2ccccc12 -2.55%
C#CCCCCCCCCCCCC(O)CC(O)COC(C)=O (stereo not given) -27.6%
O=C(Oc1ccccc1)c1ccccc1O -13.3%
O=c1c(-c2ccc(Cl)cc2)nc2cnc(N3CCNCC3)nc2n1Cc1ccc(F)cc1 6.27%
COc1ncnc(NS(=O)(=O)c2ccc(N)cc2)c1OC 6.44%
CC(=O)OCC(=O)[C@@]1(O)[C@H](C)C[C@H]2[C@@H]3CCC4=CC(=O)C=C[C@]4(C)[C@@]3(F)[C@@H](O)C[C@@]21C -1.06%
Cc1cc(C(=O)Nc2cccc(-c3nc(CNC(=O)c4ccc[n+]([O-])c4)c(C)o3)c2)c(C)o1 -3.79%
O=C(c1ccc2c(c1)OCO2)N1CCCCC1 -20%
O=C(C[N+]12CN3CN(CN(C3)C1)C2)c1ccc(Br)cc1 -17.2%
CC(=O)O[C@H]1C(=O)[C@@]2(C)C([C@H](OC(=O)c3ccccc3)[C@]3(O)C[C@H](OC(=O)[C@H](O)[C@@H](NC(=O)c4ccccc4)c4ccccc4)C(C)=C1C3(C)C)[C@]1(OC(C)=O)CO[C@@H]1C[C@@H]2O (stereo not given in full) -15.8% and -4.54%
CN(C)c1ccc(/C=c2\[nH]c(=O)/c(=C/c3ccc(N(C)C)cc3)[nH]c2=O)cc1 -10.5%
COc1ccc(C(=O)CC(=O)c2ccc(C(C)(C)C)cc2)cc1 1.24%
N#CCCn1c(=O)c(CCc2ccccc2)nc2cnc(OCc3ccccc3)nc21 -4.19%
COc1cc(CN2CCC3(CCC(CNC(=O)c4ccco4)O3)CC2)ccc1O (stereo not given) -27.4%
COc1ccc2[nH]cc(CCNc3ncncc3-c3c(C)noc3C)c2c1 -11.7%
OC(c1cc(C(F)(F)F)nc2c(C(F)(F)F)cccc12)C1CCCCN1 (stereo not given) -11.8%
COc1cc(=O)n2c(c1C(=O)NCc1nonc1C)CCN(Cc1c[nH]c3ccccc13)CC2 4.81%
Fc1ccc(Nc2ncncc2-c2ccccc2C(F)(F)F)cc1 -17.7%
Cc1ccccc1-c1cc2c(c(OC3CCOC3)c1)OCCN(C(=O)Cn1cccn1)C2 (stereo not given) -13.4%
O=C(c1cccc(F)c1)N1CCC[C@@]2(CCN(c3ncccn3)C2)C1 -1.21%
COC(=O)CC1C(C)(C)C2(O)OC34CC2C(=O)[C@@]1(C)C3CC[C@]1(C)C4=CC(=O)OC1c1ccoc1 (stereo not given in full) -10.6%
COc1ccc2c(c1)c(CC(=O)N1CCOCC1)c(C)n2C(=O)c1ccc(Cl)cc1 -8.32% and 7.39%
CC(=O)N[C@@H](C(=O)O)C(C)(C)SN=O -0.706%
O=c1c(-c2ccccc2)nc2cnc(Oc3ccccc3)nc2n1C[C@H]1CCCO1 -7.62%
Cc1nc2cc(NC(=O)[C@@H]3C[C@@H](Sc4ccccn4)CN3Cc3cccc(F)c3)ccc2s1 1.16%
COc1ccccc1-c1ccc2ncnc(NC3CCNCC3)c2c1 -0.645%
Cc1coc2c1C(=O)C(=O)c1c-2ccc2c1CCCC2(C)C -31.7% and 4.8% and -46.7%
COc1ccc(CN2Cc3ccccc3OC(c3ccccc3OC)C2)cc1O (stereo not given) -19.3%
OC1(c2cccnc2)CCN(Cc2ccc3c(c2)CN(Cc2cccc(F)c2F)CCO3)CC1 1.51%
O=C(c1cccc(F)c1)N1CCC2(CC1)CCN(c1ccncc1)CC2 -6.65%
NCCNc1cccc2ccccc12 0.141%
CNCCCC12CCC(c3ccccc31)c1ccccc12 1.94% [middle of 4 runs]
C/C=C/c1ccc(OC(C)[C@@H](O)c2ccc(O)c(OC)c2)c(OC)c1 (stereo not given in full) -20.9%
Cc1cccc(CNc2ncncc2-c2cccc(NS(C)(=O)=O)c2)c1 0.0124%
CC[C@H]1OC(=O)C[C@@H](O)[C@H](C)[C@@H](O[C@@H]2O[C@H](C)[C@@H](O)[C@H](N(C)C)[C@H]2O)[C@@H](CCN2C[C@H](C)C[C@H](C)C2)C[C@@H](C)C(=O)/C=C/C(C)=C/[C@@H]1CO[C@@H]1O[C@H](C)[C@@H](O)[C@@H](OC)[C@H]1OC -11.6%
Cc1ccccc1CN1CCc2nnc(C(C)NC(=O)c3cc(F)ccc3F)n2CC1 (stereo not given) 3.19%
O=C1Cc2c([nH]c3ccc(Br)cc23)-c2ccccc2N1 -14.2% and -4.14%
O=C(/C=C/c1ccccc1)c1cccs1 1.65%
Cn1ncc(S(=O)(=O)Cc2ccccc2)c(Br)c1=O -30.5%
COC(=O)/C=C/c1ccccc1S(=O)(=O)NC(C)C -14.4%
CC(C)(C)[C@@H]1CCC(=O)N(CC[C@H](Sc2ccccc2)c2ccccc2)CC1 -14.2%
CCCCCCC(=O)OC1CC(C)(C)NC(C)(C)C1 3.42%
O=C1c2ccccc2CC[C@H]1CNCCc1ccc(O)cc1 -10.2%
O=C(/C=C/c1ccc2c(c1)OCO2)c1cccs1 10.5%
Oc1cc2c(cc1O)CN(C(=S)NCCc1ccc(Cl)cc1)CCC2 -7.66% and -21.6%
COCCn1c(=O)cnc2cnc(Oc3ccccc3)nc21 -6.96%
CCCCCC(=O)O[C@]1(C(C)=O)CC[C@H]2[C@@H]3CCC4=CC(=O)CC[C@]4(C)[C@H]3CC[C@@]21C -22.8%
Cc1oc(-c2ccccc2NC(=O)c2ccccc2)nc1CNC(=O)c1cccc(-n2cccn2)c1 -0.575%
Cc1c(C)c2c(c(C)c1OC(=O)CCC(=O)O)CC[C@@](C)(CCC[C@H](C)CCC[C@H](C)CCCC(C)C)O2 -43.1%
c1cncc(-c2nc(N3CCNCC3)c3ccccc3n2)c1 -27%
CC1(C)C[C@@H]1C(=O)N/C(=C\CCCCSC[C@H](N)C(=O)O)C(=O)O 1.68% and -1.7%
Cc1cc(Cn2cnc3c2C[C@@H](C(=O)O)N(C(=O)C(c2ccccc2)c2ccccc2)C3)ccc1N -35.2%
COc1ccc(C(=O)N2CCC3(CCCN(Cc4ccc(C#N)cc4)C3)CC2)cc1 -2.1%
COc1ccc(C(=O)N2CCC3(CC2)CCN(c2ccccc2)CC3)cc1 -14.3%
C[C@@H]1C[C@H]2[C@@H]3C[C@H](F)C4=CC(=O)C=C[C@]4(C)[C@@]3(Cl)[C@@H](O)C[C@]2(C)[C@H]1C(=O)COC(=O)C(C)(C)C 1.38%
CN(C)c1ncc2ncc(=O)n(C3CC3)c2n1 8.08%
CCNc1ncc2nc(-c3cccs3)c(=O)n(C)c2n1 -1.45%
CN1CCN(c2cc(-c3ccoc3)ncn2)CC1 -3.48%
NC[C@@H](O)c1ccc(O)c(O)c1 -21.5%
Cc1ccc(C(=O)Nc2cnn(-c3ccc(C(=O)NCc4nc(-c5ccccc5)n[nH]4)cc3)c2)c(C)c1 -11.2%
CCN1CCN(C(=O)NC(C(=O)NC2C(=O)N3C2SC(C)(C)C3C(=O)O)c2ccccc2)C(=O)C1=O (stereo not given) 10%
COCCn1c(=O)c(-c2cccc(C#N)c2)nc2cnc(N3CCN(C)CC3)nc21 -16.1%
CC(C)CC1C(=O)N2CCCC2C2(O)O[C@@](NC(=O)C3C=C4c5cccc6[nH]c(Br)c(c56)CC4N(C)C3)(C(C)C)C(=O)N12 (stereo not given in full) 3.16%
CN(C)c1ccc(-c2nc(N3CCNCC3)c3ccccc3n2)cc1 1.68%
C[C@@H](O)[C@H]1C(=O)N2C(C(=O)O)=C(S[C@@H]3CN[C@H](C(=O)N(C)C)C3)[C@H](C)[C@H]12 4.52%
CC(=O)NCC(=O)N[C@H](CCC(=O)O)C(=O)O (Ac-Gly-[dE]-OH) -10.8%
O=C(Nc1cccc(C(F)(F)F)c1)c1cc(Br)cc(Br)c1O -3.54%
CC1CCCCN1CCCOC(=O)c1ccccc1 (stereo not given) -0.267%
